# Reference: the supplement of paper PMC8728848
# The list shows a part of the results.
# Legend:
# Assay in all cases: glycan array binding signal (z-score within array); higher = stronger binding
# Conditions in all cases: glycan notation: IUPAC condensed, linker removed
# [1] = target: GlcNAc(a1-6)Gal(b1-4)GlcNAc
# How it was run: (§1)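 Glycan array data were curated from 3228 arrays in the Consortium for Functional Glycomics database and kept only where the protein sequence was available. Glycan names were converted to IUPAC-condensed notation, and columns mapping to the same glycan were averaged. The binding signal is a within-array Z-score, averaged across arrays of the same protein sequence at different concentrations or buffers and across linkers. Negative Z-scores can be read as non-binding.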
# [2] = target: GlcNAc(b1-2)Gal(b1-3)GalNAc
# How it was run: as §1
# [3] = target: GlcNAc(b1-2)Man(a1-3)[GlcNAc(b1-2)Man(a1-6)]Man(b1-4)GlcNAc(b1-4)GlcNAc
# How it was run: as §1
# [4] = target: GlcNAc(b1-2)Man(a1-3)[GlcNAc(b1-2)Man(a1-6)]Man(b1-4)GlcNAc(b1-4)[Fuc(a1-6)]GlcNAc
# How it was run: as §1
# [5] = target: GlcNAc(b1-2)Man(a1-3)[GlcNAc(b1-4)][GlcNAc(b1-2)Man(a1-6)]Man(b1-4)GlcNAc(b1-4)GlcNAc
# How it was run: as §1
# [6] = target: GlcNAc(b1-2)Man(a1-3)[GlcNAc(b1-4)][GlcNAc(b1-2)Man(a1-6)]Man(b1-4)GlcNAc(b1-4)[Fuc(a1-6)]GlcNAc
# How it was run: as §1
# [7] = target: GlcNAc(b1-2)[GlcNAc(b1-4)]Man(a1-3)[GlcNAc(b1-2)Man(a1-6)]Man(b1-4)GlcNAc(b1-4)GlcNAc
# How it was run: as §1
# [8] = target: GlcNAc(b1-2)[GlcNAc(b1-4)]Man(a1-3)[GlcNAc(b1-4)][GlcNAc(b1-2)Man(a1-6)]Man(b1-4)GlcNAc(b1-4)GlcNAc
# How it was run: as §1
# [9] = target: GlcNAc(b1-2)[GlcNAc(b1-4)]Man(a1-3)[GlcNAc(b1-4)][GlcNAc(b1-2)[GlcNAc(b1-6)]Man(a1-6)]Man(b1-4)GlcNAc(b1-4)GlcNAc
# How it was run: as §1
# [10] = target: GlcNAc(b1-2)[GlcNAc(b1-4)]Man(a1-3)[GlcNAc(b1-4)][GlcNAc(b1-2)[GlcNAc(b1-6)]Man(a1-6)]Man(b1-4)GlcNAc(b1-4)[Fuc(a1-6)]GlcNAc
# How it was run: as §1
# [11] = target: GlcNAc(b1-2)[GlcNAc(b1-6)]Man(a1-6)[GlcNAc(b1-2)Man(a1-3)]Man(b1-4)GlcNAc(b1-4)GlcNAc
# How it was run: as §1
# [12] = target: GlcNAc(b1-2)[GlcNAc(b1-6)]Man(a1-6)[GlcNAc(b1-2)Man(a1-3)]Man(b1-4)GlcNAc(b1-4)[Fuc(a1-6)]GlcNAc
# How it was run: as §1
# [13] = target: GlcNAc(b1-2)[GlcNAc(b1-6)]Man(a1-6)[GlcNAc(b1-4)][GlcNAc(b1-2)Man(a1-3)]Man(b1-4)GlcNAc(b1-4)GlcNAc
# How it was run: as §1
# GlcNAc(b1-3)Fuc = target: GlcNAc(b1-3)Fuc
# How it was run: as §1
# GlcNAc(b1-3)Gal = target: GlcNAc(b1-3)Gal
# How it was run: as §1
# [14] = target: GlcNAc(b1-3)Gal(b1-3)GalNAc
# How it was run: as §1
# GlcNAc(b1-3)Gal(b1-4)Glc = target: GlcNAc(b1-3)Gal(b1-4)Glc
# How it was run: as §1
# [15] = target: GlcNAc(b1-3)Gal(b1-4)GlcNAc
# How it was run: as §1
binder,measurement,setting,value
"Gal-9-hFc (Mus musculus), O08573-2 (protein) MALFSAQSPYINPIIPFTGPIQGGLQEGLQVTLQGTTKSFAQRFVVNFQNSFNGNDIAFHFNPRFEEGGYVVCNTKQNGQWGPEERKMQMPFQKGMPFELCFLVQRSEFKVMVNKKFFVQYQHRVPYHLVDTIAVSGCLKLSFITFQTQNFRPAHQAPMAQTTIHMVHSTPGQMFSTPGIPPVVYPTPAYTIPFYTPIPNGLYPSKSIMISGNVLPDATRFHINLRCGGDIAFHLNPRFNENAVVRNTQINNSWGQEERSLLGRMPFSRGQSFSVWIICEGHCFKVAVNGQHMCEYYHRLKNLQDINTLEVAGDIQLTHVQT",glycan array binding signal (z-score),[1],-0.459
same,glycan array binding signal (z-score),[2],-0.319
same,glycan array binding signal (z-score),[3],-0.437
same,glycan array binding signal (z-score),[4],0.079
same,glycan array binding signal (z-score),[5],-0.371
same,glycan array binding signal (z-score),[6],-0.566
same,glycan array binding signal (z-score),[7],-0.473
same,glycan array binding signal (z-score),[8],2.04
same,glycan array binding signal (z-score),[9],-0.447
same,glycan array binding signal (z-score),[10],-0.554
same,glycan array binding signal (z-score),[11],-0.525
same,glycan array binding signal (z-score),[12],-0.498
same,glycan array binding signal (z-score),[13],-0.566
same,glycan array binding signal (z-score),GlcNAc(b1-3)Fuc,-0.429
same,glycan array binding signal (z-score),GlcNAc(b1-3)Gal,-0.151
same,glycan array binding signal (z-score),[14],-0.326
same,glycan array binding signal (z-score),GlcNAc(b1-3)Gal(b1-4)Glc,-0.401
same,glycan array binding signal (z-score),[15],-0.323
